Data reported in the supplement of paper PMC3334620.
In all, about 33,000 sequences were measured (“E-score (-0.5 to 0.5)”: median about -0.043, highest 2% from about 0.37 on). The list shows a part of the results.

Molecular target: T1, Upc2 (UniProt Q12151)
T1 sequence: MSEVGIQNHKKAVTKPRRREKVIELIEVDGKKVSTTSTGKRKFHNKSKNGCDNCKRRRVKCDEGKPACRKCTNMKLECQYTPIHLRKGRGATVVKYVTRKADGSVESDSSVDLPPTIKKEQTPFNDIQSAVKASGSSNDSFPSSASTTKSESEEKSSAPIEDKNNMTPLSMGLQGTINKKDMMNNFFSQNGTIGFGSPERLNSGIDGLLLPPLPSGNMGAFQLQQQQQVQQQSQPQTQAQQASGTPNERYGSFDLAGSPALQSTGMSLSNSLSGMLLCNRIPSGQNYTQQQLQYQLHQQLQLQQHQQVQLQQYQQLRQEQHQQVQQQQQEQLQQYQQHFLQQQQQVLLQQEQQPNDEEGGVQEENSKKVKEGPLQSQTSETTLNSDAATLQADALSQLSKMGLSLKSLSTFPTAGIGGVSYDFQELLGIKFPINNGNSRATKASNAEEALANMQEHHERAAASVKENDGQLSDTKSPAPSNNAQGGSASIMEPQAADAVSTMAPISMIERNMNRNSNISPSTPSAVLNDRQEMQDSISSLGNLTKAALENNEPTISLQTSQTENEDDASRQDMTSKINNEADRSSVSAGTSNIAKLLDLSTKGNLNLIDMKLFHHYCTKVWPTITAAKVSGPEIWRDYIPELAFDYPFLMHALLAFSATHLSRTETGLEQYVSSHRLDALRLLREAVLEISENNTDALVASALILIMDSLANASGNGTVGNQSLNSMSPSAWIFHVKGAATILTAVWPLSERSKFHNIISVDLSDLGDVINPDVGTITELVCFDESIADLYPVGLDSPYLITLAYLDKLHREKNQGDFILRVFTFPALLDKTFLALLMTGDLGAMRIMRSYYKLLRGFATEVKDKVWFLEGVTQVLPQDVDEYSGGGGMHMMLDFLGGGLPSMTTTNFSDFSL
Assay: PBM E-score (8-mer binding enrichment) (E-score (-0.5 to 0.5)); higher = stronger / more preferred TF binding; most listed sequences are background and not binding sites
Settings: protein concentration: 200 nM; construct: GST-full length
Summary of the method: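 Using PURExpress in vitro transcription/translation, GST-tagged yeast transcription factors were made in full-length or DNA-binding-domain form. These were applied at about 100-200 nM to double-stranded universal all-10-mer Agilent arrays, and bound protein was detected with fluorescent anti-GST. Scans were normalised with masliner before the Universal PBM Analysis Suite assigned E-scores to ungapped eight-base words pooled with their reverse complements.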

Sequence	PBM E-score
ATTTGTCC	-0.0368
ATCAAGAG	-0.0343
CTCACCAA	0.00156
ACGTGCGA	0.106
ATGGAATC	0.0787
ATTGGACC	-0.161
ATCGGAAT	0.0354
CCTCTGGA	-0.117
ACATAAGG	0.0292
GCCTGTCA	-0.217
GGACGGTA	-0.121
AGGACGAT	0.0383
AGGAACCG	0.102
CACGCGAC	-0.00138
CGCGCATA	0.0804
GGTTACTA	-0.0998
AACACATC	0.115
ATCCGACG	0.176
AGAGCGCT	-0.231
AACTGACG	-0.116
CCGTTCGC	0.201
AGTTGAAG	-0.0772

Sequence	PBM E-score
CCGCAGCC	-0.0849
CACATAAC	-0.00287
ACACCCTA	0.0638
AAGCAACC	-0.017
TAAGGCTA	0.0758
AAGAGATT	-0.125
GCGACGAA	0.216
ACGTAAAA	0.268
CCTTTAAA	0.0101
AAGCAATG	-0.133
CCCTTGTC	-0.172
GGAGATAA	-0.021
ATAGTGCC	0.0198
CCGCACGC	-0.0864
ACCTTACA	-0.171
CCTTTTGC	-0.11
ACTTTAAG	-0.0539
ACGCCTGC	-0.215
GCATCCGC	-0.0671
AGGATCCC	-0.108
GCTCCTAA	-0.179
ACACGCAG	0.0737

Sequence	PBM E-score
GGGATAAA	0.0749
GGTCAAAC	0.21
CCCTCGCA	0.125
GCAACTGA	0.0086
GCTCAGAA	-0.0808
GTCGGAAC	0.00455
CGGCGTAA	0.214
CTCATACA	-0.0251
AATTCCAA	-0.134
CTTCCAGA	-0.028
AAACAGAA	-0.115
CCTCACTA	-0.191
ATCGGCCC	-0.113
TATTAGGA	0.104
GACATGCA	0.00181
ATGGGTCG	-0.0132
GTCGCATA	0.375
CGACAGCA	0.067
GCATGTGA	-0.048
AGATACAG	0.0201
GATCTCGA	-0.0418
ACTGGCAG	-0.183

Sequence	PBM E-score
AGGCCTTC	0.00522
CGACCTTC	0.073
ACCTGAGT	-0.0104
ATTACTTC	0.0331
CCTTTGGA	-0.188
CACTCACC	-0.171
AAGGCTCT	-0.314
AGTCCCCC	-0.307
AGAAGAAT	-0.182
ATGTCCCC	-0.08
AGTCTCGG	0.0764
ATGGCATA	0.145
AGCCCATG	-0.143
CTTATATC	-0.0716
AGGATAGA	-0.212
CCTAATCA	-0.0746
AGATCCCC	-0.1
CTCTTAAA	0.203
ACTGGATC	-0.204
ATACTGCA	0.0601
CGCCACTC	-0.0892
CAGATCAG	-0.106

Sequence	PBM E-score
CGACTATA	0.167
CTATCCAC	-0.102
AGCCCTAA	-0.191
ACACACGA	0.187
AGAGAAAT	0.0721
AAACGTGG	0.255
GAGGTGCA	-0.0499
AAAGCGCC	-0.116
CGTTCCTA	0.302
AAATGAAT	-0.131
AGATAATA	0.0225
CTCTTGCA	-0.139
TAATGGCA	-0.0754
ATCTCACC	-0.184
ACCTTGAC	-0.26
ACATCCTC	0.0612
ACCATGAT	-0.12
CTAGTCAA	-0.105
GGGTAGAC	-0.141
CGGCCAAG	-0.145
TTGGCAAA	0.00835
